# Measurements: the supplement of paper PMC8728848
# The other results are listed elsewhere or left out.
# Columns and labels:
# Assay in all cases: glycan array binding signal (z-score within array); higher = stronger binding
# Conditions in all cases: glycan notation: IUPAC condensed, linker removed
# GalNAc(b1-3)GalNAc = target: GalNAc(b1-3)GalNAc
# How it was run: (§1)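 Glycan array data were curated from 3228 arrays in the Consortium for Functional Glycomics database and kept only where the protein sequence was available. Glycan names were converted to IUPAC-condensed notation, and columns mapping to the same glycan were averaged. The binding signal is a within-array Z-score, averaged across arrays of the same protein sequence at different concentrations or buffers and across linkers. Negative Z-scores can be read as non-binding.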
# GalNAc(b1-4)GlcNAc = target: GalNAc(b1-4)GlcNAc
# How it was run: as §1
# Glc(a1-4)Glc = target: Glc(a1-4)Glc
# How it was run: as §1
# Glc(a1-6)Glc(a1-6)Glc = target: Glc(a1-6)Glc(a1-6)Glc
# How it was run: as §1
# Glc(b1-4)Glc = target: Glc(b1-4)Glc
# How it was run: as §1
# Glc(b1-6)Glc = target: Glc(b1-6)Glc
# How it was run: as §1
# GlcA(b1-3)Gal = target: GlcA(b1-3)Gal
# How it was run: as §1
# GlcA(b1-3)GlcNAc = target: GlcA(b1-3)GlcNAc
# How it was run: as §1
# GlcA(b1-6)Gal = target: GlcA(b1-6)Gal
# How it was run: as §1
# [1] = target: GlcNAc(a1-3)Gal(b1-4)GlcNAc
# How it was run: as §1
# [2] = target: GlcNAc(a1-6)Gal(b1-4)GlcNAc
# How it was run: as §1
# [3] = target: GlcNAc(b1-2)Gal(b1-3)GalNAc
# How it was run: as §1
# [4] = target: GlcNAc(b1-2)Man(a1-3)[GlcNAc(b1-2)Man(a1-6)]Man(b1-4)GlcNAc(b1-4)GlcNAc
# How it was run: as §1
# GlcNAc(b1-3)Gal = target: GlcNAc(b1-3)Gal
# How it was run: as §1
# [5] = target: GlcNAc(b1-3)Gal(b1-3)GalNAc
# How it was run: as §1
# GlcNAc(b1-3)Gal(b1-4)Glc = target: GlcNAc(b1-3)Gal(b1-4)Glc
# How it was run: as §1
# [6] = target: GlcNAc(b1-3)Gal(b1-4)GlcNAc
# How it was run: as §1
# [7] = target: GlcNAc(b1-3)Gal(b1-4)GlcNAc(b1-3)Gal(b1-4)GlcNAc
# How it was run: as §1
# GlcNAc(b1-3)GalNAc = target: GlcNAc(b1-3)GalNAc
# How it was run: as §1
# GlcNAc(b1-3)Man = target: GlcNAc(b1-3)Man
# How it was run: as §1
# [8] = target: GlcNAc(b1-3)[GlcNAc(b1-4)][GlcNAc(b1-6)]GlcNAc
# How it was run: as §1
# [9] = target: GlcNAc(b1-3)[GlcNAc(b1-6)]Gal(b1-4)GlcNAc
# How it was run: as §1
# [10] = target: GlcNAc(b1-3)[GlcNAc(b1-6)]GalNAc
# How it was run: as §1
# [11] = target: GlcNAc(b1-4)Gal(b1-4)GlcNAc
# How it was run: as §1
# GlcNAc(b1-4)GlcNAc = target: GlcNAc(b1-4)GlcNAc
# How it was run: as §1
# [12] = target: GlcNAc(b1-4)GlcNAc(b1-4)GlcNAc
# How it was run: as §1
# [13] = target: GlcNAc(b1-4)GlcNAc(b1-4)GlcNAc(b1-4)GlcNAc(b1-4)GlcNAc
# How it was run: as §1
# [14] = target: GlcNAc(b1-4)GlcNAc(b1-4)GlcNAc(b1-4)GlcNAc(b1-4)GlcNAc(b1-4)GlcNAc
# How it was run: as §1
# [15] = target: GlcNAc(b1-4)[GlcNAc(b1-6)]GalNAc
# How it was run: as §1
# [16] = target: GlcNAc(b1-6)Gal(b1-4)GlcNAc
# How it was run: as §1
# GlcNAc(b1-6)GalNAc = target: GlcNAc(b1-6)GalNAc
# How it was run: as §1
# GlcNAc3Prop(b1-4)GlcNAc = target: GlcNAc3Prop(b1-4)GlcNAc
# How it was run: as §1
# Kdn(a2-3)Gal(b1-3)GlcNAc = target: Kdn(a2-3)Gal(b1-3)GlcNAc
# How it was run: as §1
# Kdn(a2-3)Gal(b1-4)GlcNAc = target: Kdn(a2-3)Gal(b1-4)GlcNAc
# How it was run: as §1
# [17] = target: Man(a1-2)Man(a1-2)Man(a1-3)Man
# How it was run: as §1
# [18] = target: Man(a1-2)Man(a1-2)Man(a1-6)[Man(a1-3)]Man
# How it was run: as §1
# Man(a1-2)Man(a1-3)Man = target: Man(a1-2)Man(a1-3)Man
# How it was run: as §1
# [19] = target: Man(a1-2)Man(a1-3)[Man(a1-2)Man(a1-6)]Man
# How it was run: as §1
# [20] = target: Man(a1-2)Man(a1-3)[Man(a1-2)Man(a1-6)]Man(a1-6)[Man(a1-2)Man(a1-2)Man(a1-3)]Man
# How it was run: as §1
# [21] = target: Man(a1-2)Man(a1-3)[Man(a1-2)Man(a1-6)]Man(a1-6)[Man(a1-2)Man(a1-2)Man(a1-3)]Man(b1-4)GlcNAc(b1-4)GlcNAc
# How it was run: as §1
# [22] = target: Man(a1-2)Man(a1-3)[Man(a1-6)]Man(a1-6)[Man(a1-2)Man(a1-3)]Man(b1-4)GlcNAc(b1-4)GlcNAc
# How it was run: as §1
# [23] = target: Man(a1-2)Man(a1-6)[Man(a1-3)]Man(a1-6)[Man(a1-2)Man(a1-2)Man(a1-3)]Man
# How it was run: as §1
# [24] = target: Man(a1-2)Man(a1-6)[Man(a1-3)]Man(a1-6)[Man(a1-2)Man(a1-2)Man(a1-3)]Man(b1-4)GlcNAc(b1-4)GlcNAc
# How it was run: as §1
# Man(a1-3)[Man(a1-6)]Man = target: Man(a1-3)[Man(a1-6)]Man
# How it was run: as §1
# [25] = target: Man(a1-3)[Man(a1-6)]Man(a1-6)[Man(a1-2)Man(a1-3)]Man(b1-4)GlcNAc(b1-4)GlcNAc
# How it was run: as §1
# [26] = target: Man(a1-3)[Man(a1-6)]Man(a1-6)[Man(a1-3)]Man
# How it was run: as §1
# [27] = target: Man(a1-3)[Man(a1-6)]Man(a1-6)[Man(a1-3)]Man(b1-4)GlcNAc(b1-4)GlcNAc
# How it was run: as §1
# [28] = target: Man(a1-3)[Man(a1-6)]Man(b1-4)GlcNAc(b1-4)GlcNAc
# How it was run: as §1
# Man(a1-6)Man = target: Man(a1-6)Man
# How it was run: as §1
# Man(b1-4)GlcNAc = target: Man(b1-4)GlcNAc
# How it was run: as §1
# Neu5Ac(a2-3)Gal = target: Neu5Ac(a2-3)Gal
# How it was run: as §1
# [29] = target: Neu5Ac(a2-3)Gal(b1-3)GalNAc
# How it was run: as §1
# [30] = target: Neu5Ac(a2-3)Gal(b1-3)GalNAc(b1-3)Gal(a1-4)Gal(b1-4)Glc
# How it was run: as §1
# [31] = target: Neu5Ac(a2-3)Gal(b1-3)GalNAc(b1-3)Gal(b1-4)GlcNAc
# How it was run: as §1
# [32] = target: Neu5Ac(a2-3)Gal(b1-3)GalNAc(b1-4)[Neu5Ac(a2-3)]Gal(b1-4)Glc
# How it was run: as §1
# [33] = target: Neu5Ac(a2-3)Gal(b1-3)GalNAc6S
# How it was run: as §1
# [34] = target: Neu5Ac(a2-3)Gal(b1-3)GlcNAc
# How it was run: as §1
# [35] = target: Neu5Ac(a2-3)Gal(b1-3)GlcNAc(b1-3)Gal(b1-3)GlcNAc
# How it was run: as §1
# [36] = target: Neu5Ac(a2-3)Gal(b1-3)GlcNAc6S
# How it was run: as §1
binder,measurement,setting,value
"NESD (Drosophila melanogaster), NP_610025.1 (protein) MGHHHHHHSSGVDLGTENLYFQSMMEVFTFEKSYLERLKEAEAVLSWEGAVMPASQVRSEWKSYVELKIEPAGWQAIWKIPRVICEDLKLRYPTIVYGYVEQVIFDELKAVFVVTAVQDSDVHLPESNEVSLVELWPTVQQENAALNVDTTAECIDRLRFFYTHVWMPWDKDYDDDRDWVQQHLQARIQLVCDLSKNRLPRPLALHMRTLLAEAKYIQQRLDYLELDLSDAESDDEAVELNDSVAEPARKQSKAGSANGCLNVSSLPVTDLMCLHLRMAIIRSEFEILENPEMRRAYSELQSNSLKRLRCSSGRTRQSEDLLVERNSISHVVTLPGKLQQQLELLKLAQTLVKPESKVQLSNTLQDVLSICQSNDDILLSPGEHTIKFLEHLNDNGSLRGLTQPEAILSPAADLSLLPVVCSSDEDSTLLVIDGDYTLSELVLDCRHVRRGILLRNGTLTMRGCRLLGDGSSSTQEGIVCMPGASVELKSCLIENFAVGVSMRPKSSAELGSVQFKTCKTGLELLEKSASVNLQGSKCSFENCALGILADGFVLGEQRTEKVLVLNKFSELQRYNEDNLLGNCSFYNCKKNVRVFNESGQLLAQRSHQQLLEDELGGENKENIQLV",glycan array binding signal (z-score),GalNAc(b1-3)GalNAc,-0.339
same,glycan array binding signal (z-score),GalNAc(b1-4)GlcNAc,-0.228
same,glycan array binding signal (z-score),Glc(a1-4)Glc,0.431
same,glycan array binding signal (z-score),Glc(a1-6)Glc(a1-6)Glc,6.3
same,glycan array binding signal (z-score),Glc(b1-4)Glc,-0.704
same,glycan array binding signal (z-score),Glc(b1-6)Glc,0.139
same,glycan array binding signal (z-score),GlcA(b1-3)Gal,0.128
same,glycan array binding signal (z-score),GlcA(b1-3)GlcNAc,0.025
same,glycan array binding signal (z-score),GlcA(b1-6)Gal,0.566
same,glycan array binding signal (z-score),[1],-0.595
same,glycan array binding signal (z-score),[2],-0.297
same,glycan array binding signal (z-score),[3],-0.28
same,glycan array binding signal (z-score),[4],-0.272
same,glycan array binding signal (z-score),GlcNAc(b1-3)Gal,0.579
same,glycan array binding signal (z-score),[5],-0.416
same,glycan array binding signal (z-score),GlcNAc(b1-3)Gal(b1-4)Glc,-0.307
same,glycan array binding signal (z-score),[6],-0.359
same,glycan array binding signal (z-score),[7],-0.277
same,glycan array binding signal (z-score),GlcNAc(b1-3)GalNAc,-0.408
same,glycan array binding signal (z-score),GlcNAc(b1-3)Man,-0.252
same,glycan array binding signal (z-score),[8],-0.256
same,glycan array binding signal (z-score),[9],-0.004
same,glycan array binding signal (z-score),[10],-0.207
same,glycan array binding signal (z-score),[11],-0.079
same,glycan array binding signal (z-score),GlcNAc(b1-4)GlcNAc,-0.326
same,glycan array binding signal (z-score),[12],0.322
same,glycan array binding signal (z-score),[13],-0.139
same,glycan array binding signal (z-score),[14],0.068
same,glycan array binding signal (z-score),[15],-0.261
same,glycan array binding signal (z-score),[16],-0.136
same,glycan array binding signal (z-score),GlcNAc(b1-6)GalNAc,0.156
same,glycan array binding signal (z-score),GlcNAc3Prop(b1-4)GlcNAc,-0.17
same,glycan array binding signal (z-score),Kdn(a2-3)Gal(b1-3)GlcNAc,-0.174
same,glycan array binding signal (z-score),Kdn(a2-3)Gal(b1-4)GlcNAc,-0.131
same,glycan array binding signal (z-score),[17],-0.315
same,glycan array binding signal (z-score),[18],-0.364
same,glycan array binding signal (z-score),Man(a1-2)Man(a1-3)Man,-0.316
same,glycan array binding signal (z-score),[19],-0.222
same,glycan array binding signal (z-score),[20],-0.314
same,glycan array binding signal (z-score),[21],0.313
same,glycan array binding signal (z-score),[22],-0.638
same,glycan array binding signal (z-score),[23],-0.442
same,glycan array binding signal (z-score),[24],-0.191
same,glycan array binding signal (z-score),Man(a1-3)[Man(a1-6)]Man,-0.458
same,glycan array binding signal (z-score),[25],0.103
same,glycan array binding signal (z-score),[26],-0.415
same,glycan array binding signal (z-score),[27],0.69
same,glycan array binding signal (z-score),[28],-0.345
same,glycan array binding signal (z-score),Man(a1-6)Man,-0.182
same,glycan array binding signal (z-score),Man(b1-4)GlcNAc,-0.027
same,glycan array binding signal (z-score),Neu5Ac(a2-3)Gal,0.178
same,glycan array binding signal (z-score),[29],-0.147
same,glycan array binding signal (z-score),[30],-0.413
same,glycan array binding signal (z-score),[31],0.016
same,glycan array binding signal (z-score),[32],-0.127
same,glycan array binding signal (z-score),[33],0.627
same,glycan array binding signal (z-score),[34],-0.205
same,glycan array binding signal (z-score),[35],-0.223
same,glycan array binding signal (z-score),[36],0.17
